Hit rate of the full screen: of about 50,000 compounds, about 800 (1.6%) showed an effect of 50% or more. This is one part of the list.
Target: Bcl-2-like protein 10 (Homo sapiens) (UniProt Q9HD36)
Assay: TR3 peptide-Bcl-B binding displacers, biochemical primary FP assay, phenotype converters (AID 1240);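 note: 0% = Bcl-B with tracer peptide and DMSO and 100% = tracer peptide lacking Bcl-B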
Conditions: GST-Bcl-B / FITC-TR3 peptide fluorescence polarization; stronger effect = higher value; compound at 3.75 mg/L

UniProt Q9HD36, sequence (Q9HD36 whole entry, looked up): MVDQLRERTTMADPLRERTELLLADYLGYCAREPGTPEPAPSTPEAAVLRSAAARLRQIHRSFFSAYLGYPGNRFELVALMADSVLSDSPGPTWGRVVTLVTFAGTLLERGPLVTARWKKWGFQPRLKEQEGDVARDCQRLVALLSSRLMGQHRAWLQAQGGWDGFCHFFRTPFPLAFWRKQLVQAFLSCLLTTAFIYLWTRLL

| SMILES | displacement |
| --- | --- |
| Nc1nnc(SCC(=O)Nc2ccccc2[N+](=O)[O-])s1 | 11.2% |
| COc1cc(/C=C2\SC(=S)N(C3CCCCC3)C2=O)ccc1OC(=O)c1cccc(C)c1 | 3% |
| CSC1=NC(c2ccccc2)C(C(=O)Nc2ccccc2)=C(C)N1 (stereo not drawn) | -17.4% |
| CCCCNC(NCCCC)=C(S(=O)(=O)CC)S(=O)(=O)CC | 0.7% |
| CC(=O)Oc1ccc(/C=C2/SC(=S)N(c3ccccc3)C2=O)cc1 | -2.6% |
| CCc1ccc(/C=C2/SC(=S)N(CCC(=O)O)C2=O)cc1 | -7.1% |
| Cc1ccc(C(=O)c2ccc(Br)cc2)cc1S(=O)(=O)Nc1cccc(C(=O)O)c1 | 9.2% |
| Cc1ccc(CC2C(=O)N(c3ccc4ccccc4n3)C(=O)C2C)cc1 (stereo not drawn) | 2.2% |
| N#C/C(=C(/O)C(c1ccccc1)c1ccccc1)c1nc2ccccc2s1 | -3.6% |
| O=C(c1ccc(-c2ccccc2)cc1)N1CCN(CCN2C(=O)c3cccc4cccc(c34)C2=O)CC1 | -9% |
| O=C(COc1ccc(Cl)cc1)Nc1ccc2oc(-c3ccccc3)nc2c1 | -6.4% |
| O=C(O)C1C2CCC(O2)C1C(=O)N1CCN(c2ccc(F)cc2)CC1 (stereo not drawn) | -9.7% |
| CCc1ccc(-c2cc(C(=O)O)c3ccccc3n2)cc1 | 6.2% |
| OCC1CCCCN1CC(O)COc1ccc(C23CC4CC(CC(C4)C2)C3)cc1 (stereo not drawn) | -1.4% |
| CC(=O)Oc1ccc(C)cc1N1C(=O)c2ccc(C(=O)O)cc2C1=O | 11.4% |
| O=C(COc1ccccc1Cl)Nc1ccc(NC(=O)c2ccc(Cl)cc2Cl)cc1 | -23.1% |
| Cc1cccc(C)c1NC(=O)c1cccc([N+](=O)[O-])c1 | 0.9% |
| CC1CC(C)CN(C(=O)/C=C/c2ccc3c(c2)OCO3)C1 (stereo not drawn) | -11% |
| CC1CCCN(C(=O)/C=C/c2ccccc2)C1 (stereo not drawn) | 8.3% |
| O=C(Nc1ccc(I)cc1Cl)c1cccc2ccccc12 | -5.6% |
| CC(=O)c1cccc(NC(=O)c2ccc(C(=O)Nc3cccc(C(C)=O)c3)cc2)c1 | 15% |
| CCN(CC)c1ccc(/C=C(/C#N)C(=O)Nc2cccc(Br)c2)o1 | -60.8% |

| SMILES | displacement |
| --- | --- |
| CCCOc1cccc(C(=O)Nc2scc(-c3ccc(F)cc3)c2C(=O)OC)c1 | -8.5% |
| O=C(CC1SC(=Nc2ccccc2)N(c2ccccc2)C1=O)Nc1ccccc1C(F)(F)F (stereo not drawn) | -11.6% |
| COc1ccc(-n2nc3cc(C)c(NC(=O)/C=C/c4ccccc4)cc3n2)cc1 | 4.5% |
| COC(=O)C1=C(C)N(C)C(C)=C(C(=O)OC)C1c1ccc(C(=O)OC)cc1 | 0.4% |
| Cc1ccc(-c2nc3ncccc3o2)cc1NC(=O)c1cc([N+](=O)[O-])ccc1Cl | 3.7% |
| COc1ccccc1CNC(=O)CN(c1ccc(Cl)cc1)S(C)(=O)=O | -1% |
| CCN(CC)C(=O)CN(c1ccc(OC)c(Cl)c1)S(=O)(=O)c1ccccc1 | 7.8% |
| CCN=C1SC(CC(=O)Nc2ccccc2C(F)(F)F)C(=O)N1CC (stereo not drawn) | 5.2% |
| CC1(C)CC(=O)C=C(Nc2ccc3c(c2)CCC3)C1 | 0.8% |
| COc1cccc(/C=N/NC(=O)CC2C(=O)NN=C2C)c1O (stereo not drawn) | -26.2% |
| O=C(O/N=C(/c1ccncc1)c1ccc([N+](=O)[O-])cc1)c1cccc(F)c1 | -1.9% |
| O=C1CC(N2CCN(Cc3ccccc3)CC2)C(=O)N1c1ccc(Cl)c(Cl)c1 (stereo not drawn) | 1.7% |
| Cc1ccc(C(=O)/C=C/c2ccc(-c3ccccc3[N+](=O)[O-])o2)cc1 | 14% |
| COc1ccc(S(=O)(=O)N2CCN(Cc3ccccn3)CC2)cc1 | -16.4% |
| Oc1cccc(C=Nc2ccccc2)c1O | -6.7% |
| COC(=O)c1cc(NC(=O)c2cc(OC)cc(OC)c2)cc(C(=O)OC)c1 | 45.6% |
| NS(=O)(=O)c1ccc(CNS(=O)(=O)c2ccc(Br)cc2)cc1 | 11.4% |
| CC(=O)CC(=O)Nc1cccc(I)c1 | -4.5% |
| COc1ccc(C2(CNC(=O)CC(c3ccccc3)c3ccccc3O)CCOCC2)cc1OC (stereo not drawn) | 1.7% |
| Clc1ccc(/C=N/Nc2cc(N3CCOCC3)nc(N3CCOCC3)n2)c(Cl)c1 | 4.4% |
| C=CCOc1ccc(/C=N/NC(=O)CSc2ncccn2)c(O)c1 | -17.3% |
| CC(C)(C)NC(=O)/C(=C\c1cccs1)NC(=O)c1ccc(C(C)(C)C)cc1 | 20% |

| SMILES | displacement |
| --- | --- |
| O=C1CCCc2oc3c(Br)cc(NS(=O)(=O)c4cc(Cl)ccc4Cl)cc3c21 | -5.3% |
| C=CCOc1ccc(/C=C2\SC(=S)N(c3cccc(C(F)(F)F)c3)C2=O)cc1OC | 9.6% |
| O=C(O)c1ccccc1C(=O)Nc1ccc(Nc2ccc([N+](=O)[O-])cc2[N+](=O)[O-])cc1 | 8.6% |
| COc1ccc(N=Cc2cccnc2)cc1 | 13.5% |
| Cc1ccc(NCCC(=O)c2ccc(Cl)c(Cl)c2)cc1 | -15.4% |
| Nc1ccc(S(=O)(=O)Nc2nccc(/C=C/c3ccc(F)cc3)n2)cc1 | -6.5% |
| NC(=O)c1ccccc1NC(=O)COc1ccc(Cl)cc1Br | -4% |
| CCOc1ccc(-c2cc(C(=O)Nc3ncccc3C)c3ccccc3n2)cc1 | -2.7% |
| Cc1ccc(OCc2nnc(NC(=O)c3ccccc3)s2)c(C)c1 | 2.9% |
| Cc1ccc(N2C(=O)CC(Sc3nc4ccccc4s3)C2=O)cc1 (stereo not drawn) | -9.4% |
| CC(=O)C1C(c2ccccc2F)c2c(n[nH]c2C)CC1(C)O (stereo not drawn) | -8.3% |
| CCOc1ccccc1NC(=O)c1c(NC(=O)c2cccs2)sc2c1CCC(C)C2 (stereo not drawn) | -11.3% |
| O=C(COc1ccccc1[N+](=O)[O-])Nc1ccc2oc(-c3ccc(Cl)cc3Cl)nc2c1 | 13.5% |
| O=C1C2ON(c3ccc(Cl)cc3)C(c3cccs3)C2C(=O)N1Cc1ccccc1 (stereo not drawn) | -3.1% |
| COc1cc(OC)cc(C(=O)Nc2c[nH]c(=O)[nH]c2=O)c1 | 8.4% |
| CCOc1cc(C2Nc3ccc4ccccc4c3C3=C2CC(C)(C)CC3=O)ccc1O (stereo not drawn) | -10.2% |
| Cc1ccc(C2CC(C(F)(F)F)n3ncc(C(=O)N4CCN(c5ccc(F)cc5)CC4)c3N2)cc1 (stereo not drawn) | -2.8% |
| O=C(Nc1ccccc1)Nc1nnc(SCc2ccccc2F)s1 | -3.4% |
| Nc1cc(NCCCO)ccc1[N+](=O)[O-] | 12.3% |
| CCOc1ccccc1NC(=O)COc1ccc(-c2ccc(C)cc2)cc1 | -18.5% |
| Clc1cccc(OCCCN2CCCCC2)c1Cl | 8.2% |
| O=C1/C(=C\c2ccc(F)cc2)SC(=S)N1CN1CCCCC1 | 4.5% |

| SMILES | displacement |
| --- | --- |
| CCOc1ccc(NC(=O)/C(C#N)=C\c2c(C)[nH]c3ccccc23)cc1 | -1.7% |
| Cc1ccc(OCC(=O)Nc2ccccc2CO)c(C)c1 | 2.5% |
| Cc1cc(-c2ccc(C(C)C)cc2)c(C#N)c(N)n1 | -39.4% |
| CC1(C)CC(=O)C2=C(C1)NC1=C(C(=O)CC(C)(C)C1)C2c1ccc2c(c1)OCO2 | 10.4% |
| O=C1NC(c2ccccc2Cl)Nc2c1sc(=S)n2-c1ccccc1 (stereo not drawn) | 15.5% |
| CCCC1CCc2c(sc(NC(=O)C3CC3c3ccccc3)c2C(N)=O)C1 (stereo not drawn) | -0.6% |
| COc1ccc(CC(=O)Nc2sc3c(c2C#N)CCCC3)cc1 | -12.7% |
| CCC(=O)Oc1ccc2c(C(F)(F)F)cc(=O)oc2c1 | 4.6% |
| COc1ccc(S(=O)(=O)n2cnc(C)c2)cc1OC | 13.8% |
| c1ccc2nc3c(cc(N4CCOCC4)c4ccccc43)nc2c1 | 147% |
| O=C1c2cc3ccccc3c(-c3ccccc3)c2C(=O)N1CCO | 4.9% |
| CCOC(=O)C1=C(O)/C(=C/c2ccccc2)SC1=Nc1ccc([N+](=O)[O-])cc1 | -0.9% |
| CCCOc1ccc(/C=N/NS(=O)(=O)c2ccc(OC)cc2)cc1OC | 4.4% |
| COc1cc(N/N=C/c2ccc(N(C)C)cc2)ncn1 | -11.6% |
| O=C(CCCN1C(=O)/C(=C\c2cccs2)SC1=S)Nc1ccccn1 | 13.2% |
| COc1ccc(C(=O)/C=C/Nc2ccc(S(=O)(=O)Nc3nc(C)cc(C)n3)cc2)c(OC)c1 | 5.4% |
| COC(=O)c1ccccc1NC(=O)c1ccc(C)cc1 | 16.6% |
| CSc1nc2c(c(=O)n1C1CCCC1)C1(CCCCC1)Cc1ccccc1-2 | 2.2% |
| CCN(CC)C(=O)CCN1C(=O)/C(=C2\SC(=S)N(CCC(=O)N(CC)CC)C2=O)SC1=S | 13.2% |
| CCOc1ccc(C(=O)Nc2ccc3oc(-c4ccccc4C)nc3c2)cc1 | -9.2% |
| COc1cc2ccccc2cc1C(=O)Nc1cccnc1 | 6.8% |
| O=C(/C=C/c1ccc(F)cc1)Nc1cccc(C(F)(F)F)c1 | 6.5% |

| SMILES | displacement |
| --- | --- |
| Cc1nccn1S(=O)(=O)c1cc(Cl)ccc1Cl | 3.6% |
| Cc1ccc(N2CC(C(=O)Nc3ccc(Cl)cc3)CC2=O)cc1 (stereo not drawn) | 9.9% |
| O=C(CC12CC3CC(C1)CC(CC(=O)N1CCOCC1)(C3)C2)N1CCOCC1 | -16.3% |
| CCCc1nnc(NC(=O)CNc2ccc(F)cc2)s1 | 14.1% |
| Cc1ccc2c(c1)NC(c1cccc([N+](=O)[O-])c1)C1=C(CC(C)(C)CC1=O)N2 (stereo not drawn) | 7.5% |
| N#Cc1ccc(C2N(Cc3ccccc3)CCN2Cc2ccccc2)cc1 | 5.8% |
| COCCN1C(=O)/C(=C\c2ccccc2[N+](=O)[O-])C(C(=O)OC)=C1C | 17.6% |
| COCCN1C(=O)C(=O)/C(=C(/O)c2ccccc2)C1c1ccc(C(C)C)cc1 (stereo not drawn) | 34.3% |
| Cc1c(C(=O)Nc2ccncc2)cccc1[N+](=O)[O-] | -2.3% |
| C=CCN1C(=O)/C(=C2\SC(=S)N(Cc3ccccc3)C2=O)c2ccccc21 | 2.1% |
| N#C/C(=C/Nc1ccc(F)cc1)c1nc(-c2ccccc2)cs1 | -13% |
| Cc1ccc(OCCSc2nc3ccccc3[nH]2)cc1 | 5.2% |
| COc1ccc(COC(=O)NNC(=O)c2cccc(Cl)c2)cc1 | 2.2% |
| Cc1ccc2c(nc3s/c(=C\c4ccc(-c5cccc(C(F)(F)F)c5)o4)c(=O)n32)c1C | -3.1% |
| Oc1c(N=Nc2ccc(I)cc2)sc2ccccc12 | -5.1% |
| O=C(Nc1nc2ccc(Br)cc2s1)c1cccc(Cl)c1 | 1.9% |
| Cc1cc(NC(=O)c2cc(-c3ccccc3)nc3ccccc23)no1 | 3.8% |
| COc1ccc(-c2cn3ccc(C)cc3n2)cc1Br | 14.2% |
| COc1ccc(S(=O)(=O)Nc2ccc(F)cc2F)cc1 | 5.1% |
| Nc1n[nH]c(N)c1N=Nc1cccc(F)c1 | -5.1% |

— PubChem BioAssay AID1240 (Sanford-Burnham Center for Chemical Genomics, 2008)
